# Results published in ChEMBL document CHEMBL4888484, “Replenishing the malaria drug discovery pipeline: Screening and hit evaluation of the MMV Hit Generation Library 1 (HGL1) against asexual blood stage Plasmodium falciparum ,using a nano luciferase reporter read-out” (2022).
# About 540 (0.36%) of roughly 150,000 compounds showed an effect of 50% or more. The list shows a part of the results.
# Test system: Plasmodium falciparum
# Assay: Primary screen in NF54 nanoGlo assay, in single point, at 2uM, 72h; a lower Z score goes with more inhibition
# Type: functional, Erythrocyte
# Conditions: timepoint 72 hour
Compound,% Inhibition [%],Z score
O=S(=O)(c1c(Cl)cccc1Cl)N1CCC[C@@H]1CN1CCCC1,35,-0.75
COc1ccc(S(=O)(=O)N2CCOC[C@H](Oc3ccccc3)C2)cc1,31,-3.47
C=C[C@H]1OCC[C@@H]1NC(=O)NC(C)c1nnnn1C (stereo partly specified),7,-1.09
CCc1csc(NCc2cccc(N)n2)n1,-12,2.23
CCN1CCCC[C@H]1C(=O)NCCCN(C)c1ccccc1,-6,0.85
COc1cc(C(=O)N2CCN[C@H](c3ccc(O)cc3)C2)ncn1,-23,4.89
Cn1nccc1C(=O)Nc1ccccc1CCc1nc2ccccc2[nH]1,3,-0.61
O=C(COCc1ccccc1Cl)N[C@H]1CCN(C2CC2)C1,-4,0.54
O=C(CC[C@H]1CCCO1)NS(=O)(=O)c1cccnc1,-6,0.65
COc1ccccc1-c1c(C)nn2c(N3CCN(C(=O)c4ccco4)CC3)cc(C)nc12,4,-0.69
O=C1[C@H](c2ccc(Cl)cc2)N(C2CCCCCCC2)C(=O)CN1C1CCCC1,-13,1.4
CC(C)[C@H](NC1CCOCC1)C(=O)Nc1ccc(F)cn1,-1,0.16
CCc1ccc(C(=O)N[C@](C)(C#N)CC)cc1,0,0.02
CC(C)Cc1cc(CNC(=O)Cn2nnnc2N)on1,6,-0.76
C[C@]1(Cc2ccc(Cl)s2)CCCN1C(=O)Cn1cncn1,-3,0.4
C[C@@]1(C(=O)NCc2csc(N)n2)CCCCO1,4,-0.61
CCOc1ccc(CN2C(=O)c3ccccc3C2=O)cc1C(=O)OCc1nnsc1Cl,-10,1.43
Cc1nnc(NC(=O)c2coc(NC(=O)c3ccco3)n2)s1,0,-0.05
COc1ccc(C(=O)N(C(=O)c2ccc(OC)c(OC)c2)c2nc(-c3ccccc3O)cs2)cc1OC,-2,0.32
COc1cccc(CN2CC3(CCN(c4ccccn4)CC3)CC2=O)c1,4,-0.55
O=C(Cc1cccc2ccccc12)N1C[C@@H](CO)[C@H](c2ccccn2)C1,-2,0.28
CCS(=O)(=O)c1ccc(-c2nnc(NC(=O)c3cn(C)nc3OC)o2)cc1,2,-0.37
O=C(Cn1ncccc1=O)N1CC[C@H](S(=O)(=O)c2ccc(Cl)cc2)C1,4,-0.71
COc1cccc(-c2nnc(NC(=O)CCN(CCc3ccc(OC)c(OC)c3)C(=O)CCC3CCCC3)s2)c1,-2,0.29
Cn1cccc1-c1nnc2n1CCOC2,-7,1.37
Cc1cc(Cl)ccc1C(=O)N1CCC[C@H](Cn2cc(C(C)(C)N)nn2)C1,1,-0.24
COc1ccccc1C(=O)Nc1ccc2c(c1)C(=O)N1CCC[C@H]1C(=O)N2,-5,0.74

Compound,% Inhibition [%],Z score
CC(C)S(=O)(=O)NC(=O)c1csc(Cl)c1,-7,0.83
Cc1nc(C(C)C)ncc1C(=O)N[C@@H](C)c1nncn1C(C)C,-10,1.32
Cn1c(=O)[nH]cc(C(=O)NCCc2ccccc2)c1=O,2,-0.46
Cc1cccc2[nH]c(COCC(=O)N3C[C@@H]4NCCO[C@H]4C3)nc12,-4,0.74
COc1ccccc1CC(C)(C)NC(=O)C[C@H]1CCS(=O)(=O)C1,-5,1
Cn1cc(-c2ccc(C(=O)N3CCC[C@H]3C(F)(F)F)o2)cn1,-4,0.81
CC(=O)Nc1ccc(Oc2cc(NC(=O)c3nc4nc(-c5ccccc5)cc(C(F)(F)F)n4n3)cc(Oc3ccc(F)cc3)c2)cc1,-55,6.5
COCCN1C(=O)CN(C2CCC(C)CC2)C(=O)[C@@H]1c1cccs1 (stereo partly specified),25,-2.82
Cc1n[nH]c(C)c1CCC(=O)N1CC[C@H](n2cnc3ccccc32)C1,-5,0.63
N#Cc1ccc(Cn2cnc3c2c(=O)n(C2CC2)c(=O)n3-c2ccccc2Cl)cc1,-3,0.31
CC[C@H](NCc1cccnc1-n1ccnc1)c1ccccc1O,-5,0.74
COC[C@@]1(C)CCN(C(=O)c2c[nH]c3cccc(F)c23)C1,5,-0.66
Cc1cc(C)nc(N[C@H]2CN(S(C)(=O)=O)C[C@@H]2C2CC2)n1,-12,1.59
CC(=O)N1C[C@@H](O)C[C@@H]1C(=O)NCc1occc1C,1,-0.08
COc1ccc(F)cc1C(Nc1ccnc(C(=O)O)c1)[C@H]1C[C@@H](O)C1 (stereo partly specified),4,-0.59
COc1cc2c(cc1OC)[C@H](CNC(=O)c1ccco1)N(Cc1ccccc1C)CC2,-18,1.55
Cc1cc2[nH]c(CN3CCCN(CC4CC4)[C@H](C(C)C)C3)cc(=O)n2n1,-11,1.59
Cc1ccsc1[C@H]1CCN(Cc2ccncc2F)C[C@@H]1O,0,0.05
Cc1cccc(NC(=O)CN2CC(=O)NC[C@H]2c2ccccc2)c1C,-6,0.77
CC(C)Cc1ccc([C@@]2(C)NC(=O)N(Cc3ncnn3C)C2=O)cc1,5,-0.82
O[C@@H](Cn1cnc2ccccc21)Cn1c2ccc(Br)cc2c2cc(Br)ccc21,-9,1.25
O=C1C[C@H](c2nc(-c3ccncc3)no2)CN1c1ccc(Cl)cc1,7,-1.28
CC(=O)N1CCC(CCC(=O)Nc2n[nH]c3cccc(F)c23)CC1,2,-0.27
Cc1cc(COc2ccc([C@@H]3CCC(=O)N3)cc2)no1,-5,0.75
Cc1cnc(C2CCC2)n1CCNS(=O)(=O)Cc1ccccc1,-16,1.84
COc1nn(C)cc1C(=O)Nc1nc(-c2ccccn2)cs1,4,-0.45
